Experimental data: patent US6340783 (University of Washington, dated 2002)

Assays:
[1] = target: T1, high Mr heparan sulfate proteoglycan (HSPG) isolated from the culture media of bovine aortic endothelial cells (bovine (calf thoracic aorta endothelial …, UniProt A0AAA9TDR0 23-4401, Proteoglycan: heparan sulfate GAG chains on serines of the core protein also take part in binding and cannot be written in letters. 35S-sulfate or 125I label, depending on the experiment.)); assay: solid phase binding assay, 125I-BAP (1-28) on HSPG (0.28 µg) immobilised on nitrocellulose coated wells, Scatchard analysis; low affinity binding site
T1 construct: also called high Mr HSPG; high molecular weight HSPG
Experimental: (§1) Wells were blocked overnight at room temperature with 200 μl of 5% non-fat dried milk. After blocking, wells were rinsed 3 times with 200 μl of TBS. […] Bars indicate standard error of the mean.
(§2) Polyvinyl microtiter wells were coated with 100 µl of nitrocellulose solution (Schleicher and Schuell) (10 cm² of BA85 nitrocellulose in 10 ml of methanol) and allowed to dry at room temperature for 4 hours. Wells were coated overnight at room temperature with unlabeled HSPG to give 0.12 µg or 0.28 µg of bound-HSPG per well, and blocked overnight at room temperature with 200 µl of 5% non-fat dried milk (Carnation Co., Los Angeles, Calif.).

[2] = target: T2, low density heparan sulfate proteoglycan isolated from the mouse Engelbreth-Holm-Swarm (EHS) sarcoma … (mouse, UniProt Q05793 22-3707, limits assumed, heparan sulfate glycosaminoglycan chains on the core protein); assay: competition with 125I-HSPG on the BAP (1-28) affinity column
T2 construct: Purified from tumor; gift of Dr. Koji Kimata; also called EHS HSPG; EHS basement-membrane HSPG

[3] = target: T1, high Mr heparan sulfate proteoglycan …; assay: solid phase binding assay, 125I-BAP (1-28) on HSPG (0.28 µg) immobilised on nitrocellulose coated wells, Scatchard analysis; high affinity binding site
Experimental: as §1, §2

T1 sequence (A0AAA9TDR0 entry or part of it limits assumed, form in doubt): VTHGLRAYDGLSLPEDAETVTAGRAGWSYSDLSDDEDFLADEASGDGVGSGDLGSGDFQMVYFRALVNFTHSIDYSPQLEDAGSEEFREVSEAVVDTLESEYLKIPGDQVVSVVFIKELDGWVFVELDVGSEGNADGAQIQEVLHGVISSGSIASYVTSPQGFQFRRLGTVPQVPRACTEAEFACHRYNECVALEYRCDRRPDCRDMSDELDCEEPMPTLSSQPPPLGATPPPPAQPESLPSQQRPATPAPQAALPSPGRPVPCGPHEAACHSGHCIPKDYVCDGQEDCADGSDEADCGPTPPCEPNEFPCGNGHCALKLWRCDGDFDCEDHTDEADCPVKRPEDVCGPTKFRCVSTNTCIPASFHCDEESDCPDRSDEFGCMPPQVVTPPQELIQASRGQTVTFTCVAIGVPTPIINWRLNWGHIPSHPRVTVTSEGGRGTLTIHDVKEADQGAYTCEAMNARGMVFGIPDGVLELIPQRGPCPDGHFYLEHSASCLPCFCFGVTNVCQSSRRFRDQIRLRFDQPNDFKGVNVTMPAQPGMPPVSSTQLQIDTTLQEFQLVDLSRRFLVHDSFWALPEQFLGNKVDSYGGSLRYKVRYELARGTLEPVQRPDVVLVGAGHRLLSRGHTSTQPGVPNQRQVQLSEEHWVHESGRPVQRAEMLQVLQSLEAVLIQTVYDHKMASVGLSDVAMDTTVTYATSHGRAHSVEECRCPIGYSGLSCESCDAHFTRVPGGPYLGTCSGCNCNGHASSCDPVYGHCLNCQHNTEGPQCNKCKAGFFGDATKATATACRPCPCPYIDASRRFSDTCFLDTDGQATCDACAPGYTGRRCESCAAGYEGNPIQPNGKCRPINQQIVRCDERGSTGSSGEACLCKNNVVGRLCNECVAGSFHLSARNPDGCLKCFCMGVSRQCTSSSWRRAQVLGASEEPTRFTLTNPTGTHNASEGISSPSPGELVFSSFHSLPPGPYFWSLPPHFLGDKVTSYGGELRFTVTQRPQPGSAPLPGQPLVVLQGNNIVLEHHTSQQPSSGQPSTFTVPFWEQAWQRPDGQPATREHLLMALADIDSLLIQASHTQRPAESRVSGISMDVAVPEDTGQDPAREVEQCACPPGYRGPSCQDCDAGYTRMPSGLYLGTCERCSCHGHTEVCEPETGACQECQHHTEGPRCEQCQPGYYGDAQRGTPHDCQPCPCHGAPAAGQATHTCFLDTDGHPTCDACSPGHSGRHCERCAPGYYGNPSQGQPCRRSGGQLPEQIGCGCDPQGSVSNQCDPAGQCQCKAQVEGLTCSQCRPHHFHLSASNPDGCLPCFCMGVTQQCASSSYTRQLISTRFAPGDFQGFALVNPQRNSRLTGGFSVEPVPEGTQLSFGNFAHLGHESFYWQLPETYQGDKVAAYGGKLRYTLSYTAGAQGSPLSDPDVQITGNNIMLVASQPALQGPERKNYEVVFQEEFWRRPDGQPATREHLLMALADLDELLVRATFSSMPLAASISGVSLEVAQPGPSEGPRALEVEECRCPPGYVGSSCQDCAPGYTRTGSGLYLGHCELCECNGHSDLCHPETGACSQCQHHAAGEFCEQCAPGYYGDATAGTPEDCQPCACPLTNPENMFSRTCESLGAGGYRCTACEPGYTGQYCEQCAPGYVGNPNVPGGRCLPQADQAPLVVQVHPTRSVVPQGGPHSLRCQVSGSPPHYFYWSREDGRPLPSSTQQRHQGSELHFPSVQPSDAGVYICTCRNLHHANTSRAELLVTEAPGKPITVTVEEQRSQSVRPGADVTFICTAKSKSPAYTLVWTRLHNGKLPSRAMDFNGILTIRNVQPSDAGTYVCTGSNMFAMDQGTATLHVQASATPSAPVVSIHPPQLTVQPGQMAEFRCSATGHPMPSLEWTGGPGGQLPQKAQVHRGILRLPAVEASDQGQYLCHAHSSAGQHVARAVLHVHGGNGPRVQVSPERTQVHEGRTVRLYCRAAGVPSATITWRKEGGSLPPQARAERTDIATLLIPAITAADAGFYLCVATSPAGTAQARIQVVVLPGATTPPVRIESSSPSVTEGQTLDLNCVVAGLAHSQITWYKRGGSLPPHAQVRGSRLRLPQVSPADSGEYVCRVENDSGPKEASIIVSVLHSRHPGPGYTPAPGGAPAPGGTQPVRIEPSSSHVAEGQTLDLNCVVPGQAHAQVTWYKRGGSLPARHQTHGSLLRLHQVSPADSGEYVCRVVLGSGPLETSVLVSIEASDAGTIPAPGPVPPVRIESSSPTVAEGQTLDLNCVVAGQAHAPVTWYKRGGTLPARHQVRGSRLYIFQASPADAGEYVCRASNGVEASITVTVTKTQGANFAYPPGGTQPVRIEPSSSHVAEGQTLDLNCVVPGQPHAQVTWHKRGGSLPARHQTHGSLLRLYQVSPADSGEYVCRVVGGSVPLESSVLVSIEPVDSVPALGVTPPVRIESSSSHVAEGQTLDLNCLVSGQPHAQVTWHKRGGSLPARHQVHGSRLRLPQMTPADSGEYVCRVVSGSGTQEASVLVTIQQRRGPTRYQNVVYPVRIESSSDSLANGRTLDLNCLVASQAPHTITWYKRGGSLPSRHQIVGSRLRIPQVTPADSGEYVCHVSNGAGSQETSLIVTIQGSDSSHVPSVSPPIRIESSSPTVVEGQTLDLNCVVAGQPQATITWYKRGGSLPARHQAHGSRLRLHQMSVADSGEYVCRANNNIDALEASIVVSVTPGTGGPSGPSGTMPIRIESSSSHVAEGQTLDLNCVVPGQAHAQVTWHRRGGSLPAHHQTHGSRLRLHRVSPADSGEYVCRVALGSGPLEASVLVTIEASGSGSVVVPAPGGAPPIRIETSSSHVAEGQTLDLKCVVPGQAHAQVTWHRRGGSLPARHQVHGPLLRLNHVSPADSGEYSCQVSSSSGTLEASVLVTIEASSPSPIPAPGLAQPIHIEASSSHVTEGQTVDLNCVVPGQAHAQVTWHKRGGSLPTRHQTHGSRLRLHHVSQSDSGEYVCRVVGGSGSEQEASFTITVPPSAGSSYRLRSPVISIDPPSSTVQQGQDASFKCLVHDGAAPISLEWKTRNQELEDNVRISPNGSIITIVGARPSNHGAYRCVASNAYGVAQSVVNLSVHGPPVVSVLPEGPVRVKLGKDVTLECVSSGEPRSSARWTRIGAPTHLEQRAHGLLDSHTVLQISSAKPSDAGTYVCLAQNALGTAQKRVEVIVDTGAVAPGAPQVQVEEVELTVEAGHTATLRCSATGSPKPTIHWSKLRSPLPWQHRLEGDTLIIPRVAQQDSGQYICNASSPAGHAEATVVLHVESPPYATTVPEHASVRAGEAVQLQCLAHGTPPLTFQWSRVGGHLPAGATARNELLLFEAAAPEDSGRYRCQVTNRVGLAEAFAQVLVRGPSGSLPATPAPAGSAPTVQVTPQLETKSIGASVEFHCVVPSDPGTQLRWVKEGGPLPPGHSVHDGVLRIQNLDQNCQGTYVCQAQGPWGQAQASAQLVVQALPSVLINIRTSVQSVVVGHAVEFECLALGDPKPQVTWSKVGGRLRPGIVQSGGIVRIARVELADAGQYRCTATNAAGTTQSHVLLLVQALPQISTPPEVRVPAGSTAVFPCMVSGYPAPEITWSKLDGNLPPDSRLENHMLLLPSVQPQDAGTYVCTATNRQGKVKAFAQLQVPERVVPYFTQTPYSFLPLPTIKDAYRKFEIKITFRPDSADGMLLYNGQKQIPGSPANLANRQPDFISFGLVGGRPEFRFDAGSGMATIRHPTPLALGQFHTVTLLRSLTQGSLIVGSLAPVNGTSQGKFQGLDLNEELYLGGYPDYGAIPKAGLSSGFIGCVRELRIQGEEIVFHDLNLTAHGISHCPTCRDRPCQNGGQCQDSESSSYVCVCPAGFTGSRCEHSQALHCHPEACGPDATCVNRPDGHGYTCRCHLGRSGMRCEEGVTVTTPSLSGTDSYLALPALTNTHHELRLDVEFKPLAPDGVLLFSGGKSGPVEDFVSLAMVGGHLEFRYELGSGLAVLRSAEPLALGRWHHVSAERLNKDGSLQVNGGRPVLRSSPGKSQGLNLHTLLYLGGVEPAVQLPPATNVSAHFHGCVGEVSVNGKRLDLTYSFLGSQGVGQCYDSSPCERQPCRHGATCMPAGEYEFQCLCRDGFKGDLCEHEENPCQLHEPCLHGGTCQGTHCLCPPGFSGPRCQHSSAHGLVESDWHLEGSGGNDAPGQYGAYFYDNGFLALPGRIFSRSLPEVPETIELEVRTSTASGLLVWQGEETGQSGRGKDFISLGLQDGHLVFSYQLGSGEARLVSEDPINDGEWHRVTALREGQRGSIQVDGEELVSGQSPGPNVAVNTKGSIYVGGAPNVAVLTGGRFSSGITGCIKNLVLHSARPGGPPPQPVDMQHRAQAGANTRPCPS

Kd [1]: 42 nM | binding result [2]: binds | Kd [3]: 0.083 nM
B1: beta-amyloid protein (BAP) […], synthetic peptide (peptide)
peptide: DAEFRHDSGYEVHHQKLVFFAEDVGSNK
modifications: 125I label (chloramine T) in the solid phase binding assay; unlabeled and coupled to Affi-gel 10 in the column assays ; chain 1: 125I-iodinated by the chloramine T method in the solid phase binding assay; unlabeled and coupled to Affi-gel 10 in the column assays
notes: only residues 12-17 are spelled out (Val-His-His-Gln-Lys-Leu); also called BAP ([…]); β/A4 ([…])
